The text below walks through data of US20050147610A1 (AbbVie / Abbott, published 2005).

Read-outs that look alike come from different tables or passages of the source.

In assay [1] the target is T1, NEM-huIL-18 (recombinant mature human IL-18 treated with N-ethyl maleiamide) (human, UniProt Q14116 37-193, cysteines protected with N-ethyl maleiamide (NEM)).
T1 construct: monomeric; also called NEM-IL-18; NEM-rhuIL-18
Briefly: Biacore, NEM-cys protected rhuIL-18. On the technique in general: In SPR one partner is held on a chip, and binding of the other changes the refractive index at the surface.

Assay [2] addresses recombinant mature human IL-18 (preparation not specified) (human, UniProt Q14116 37-193). Briefly: cell-based or functional assay.
For assay [3], the target named is natural human IL-18 (endogenous, human whole blood) (human, UniProt Q14116 37-193). Briefly: cell-based or functional assay.
Assay [4] concerns the target T1, NEM-huIL-18 (recombinant mature human …). Briefly: Biacore.
Assay [5] addresses T2, (4C/A)-huIL-18 (4C/A mutant of mature human IL-18) (human, UniProt Q14116 37-193).
T2 construct: All four Cys of mature IL-18 are changed to Ala; also called 4C/A mutant of IL-18; Cysteine > Alanine mutant BV derived rec. human IL-18
Briefly: Biacore.

In assay [6] the target is T3, 125I labeled rhu-IL-18 (human, UniProt Q14116 37-193, NEM-treated cysteines; 125I label on lysine residues). Briefly: RBA: inhibition of 125I-rhu-IL-18 binding to IL-18Rαβ on KG-1 cells.
In assay [7] the target is T2, (4C/A)-huIL-18 (4C/A mutant of mature …). Briefly: BIACORE.
Assay [8] has as its target T3, 125I labeled rhu-IL-18. Briefly: RBA: inhibition of 125I-rhu-IL-18 binding to IL-18Rαβ on KG-1 cells. This is another data set of the same source.
Assay [9] addresses recombinant human IL-15 (human, UniProt P40933 partial chain). Briefly: BIACORE, antibody captured, cytokine in solution.
UniProt P40933, sequence (P40933 49-162 limits assumed): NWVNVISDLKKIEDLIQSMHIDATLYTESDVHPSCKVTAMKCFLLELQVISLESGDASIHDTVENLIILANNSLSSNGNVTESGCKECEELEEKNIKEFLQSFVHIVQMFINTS
Assay [10] addresses T4, recombinant human LT (lymphotoxin) (human, UniProt P01374 35-205, limits assumed).
T4 sequence (looked up): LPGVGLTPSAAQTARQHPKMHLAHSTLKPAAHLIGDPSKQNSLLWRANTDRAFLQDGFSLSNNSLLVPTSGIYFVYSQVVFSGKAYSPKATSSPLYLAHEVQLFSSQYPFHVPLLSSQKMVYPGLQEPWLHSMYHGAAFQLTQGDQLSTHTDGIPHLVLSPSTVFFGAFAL
Briefly: BIACORE, antibody captured, cytokine in solution.

The target in assay [11] is recombinant human IL-5 (human, UniProt P05113 20-134). Briefly: BIACORE, antibody captured, cytokine in solution.
UniProt P05113, sequence (P05113 20-134 limits assumed): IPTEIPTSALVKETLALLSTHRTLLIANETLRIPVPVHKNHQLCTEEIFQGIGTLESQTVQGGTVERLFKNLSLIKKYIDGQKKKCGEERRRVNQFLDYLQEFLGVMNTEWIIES
Assay [12] concerns the target recombinant human IL-9 (human, UniProt P15248). Briefly: BIACORE, antibody captured, cytokine in solution.
UniProt P15248, sequence (P15248 19-144 limits assumed): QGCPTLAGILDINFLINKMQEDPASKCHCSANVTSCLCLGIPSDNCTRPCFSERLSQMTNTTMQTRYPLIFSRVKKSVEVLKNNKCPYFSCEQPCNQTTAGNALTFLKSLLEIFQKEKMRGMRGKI
In assay [13] the target is recombinant human IL-17 (human, UniProt Q16552 24-155, limits assumed). Briefly: BIACORE, antibody captured, cytokine in solution.
UniProt Q16552, sequence (Q16552 24-155 limits assumed): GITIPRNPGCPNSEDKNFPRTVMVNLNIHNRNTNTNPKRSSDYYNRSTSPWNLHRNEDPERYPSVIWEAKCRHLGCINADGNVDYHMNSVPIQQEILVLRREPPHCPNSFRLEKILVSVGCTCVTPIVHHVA
Assay [14] concerns the target recombinant human IL-13 (human, UniProt P35225 partial chain, limits assumed). Briefly: BIACORE, antibody captured, cytokine in solution.
UniProt P35225, sequence (P35225 35-146 limits assumed): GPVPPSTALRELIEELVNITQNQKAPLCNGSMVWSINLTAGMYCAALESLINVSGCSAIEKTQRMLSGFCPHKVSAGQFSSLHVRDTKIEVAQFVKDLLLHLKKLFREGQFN
Assay [15] concerns the target T5, recombinant human IL-16 (human, UniProt Q14005 1212-1332, limits assumed).
T5 sequence (looked up): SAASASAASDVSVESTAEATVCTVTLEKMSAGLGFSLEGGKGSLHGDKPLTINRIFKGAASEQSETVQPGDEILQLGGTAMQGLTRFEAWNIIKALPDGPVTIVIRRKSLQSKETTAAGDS
Briefly: BIACORE, antibody captured, cytokine in solution.

For assay [16], the target named is T6, recombinant human IL-11 (human, UniProt P20809 22-199).
T6 sequence (looked up): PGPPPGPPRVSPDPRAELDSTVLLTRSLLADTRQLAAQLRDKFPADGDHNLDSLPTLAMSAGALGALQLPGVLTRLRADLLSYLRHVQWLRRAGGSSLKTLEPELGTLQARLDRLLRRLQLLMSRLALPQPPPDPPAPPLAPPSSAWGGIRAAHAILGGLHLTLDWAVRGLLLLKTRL
Briefly: BIACORE, antibody captured, cytokine in solution.

The target of assay [17] is T7, recombinant human IL-12 (human, UniProt P29459 23-219; P29460 23-328).
T7 construct: the two subunits are the natural heterodimer
T7 sequence (looked up) 1: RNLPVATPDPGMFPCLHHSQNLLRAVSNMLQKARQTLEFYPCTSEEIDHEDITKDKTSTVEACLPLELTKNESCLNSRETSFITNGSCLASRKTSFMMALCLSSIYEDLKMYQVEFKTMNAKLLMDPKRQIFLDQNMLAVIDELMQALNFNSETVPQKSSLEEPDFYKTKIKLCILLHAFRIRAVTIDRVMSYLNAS
T7 sequence (looked up) 2: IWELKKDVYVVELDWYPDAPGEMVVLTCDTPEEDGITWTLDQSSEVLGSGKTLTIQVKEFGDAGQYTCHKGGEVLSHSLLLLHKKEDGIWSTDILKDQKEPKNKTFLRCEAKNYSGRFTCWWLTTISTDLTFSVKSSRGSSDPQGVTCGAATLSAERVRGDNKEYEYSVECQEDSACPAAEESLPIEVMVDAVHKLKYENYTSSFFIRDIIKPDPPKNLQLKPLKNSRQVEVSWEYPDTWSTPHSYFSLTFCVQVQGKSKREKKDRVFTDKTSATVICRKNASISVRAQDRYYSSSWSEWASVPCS
Briefly: BIACORE, antibody captured, cytokine in solution.

The target of assay [18] is T8, recombinant human IFNγ (human, UniProt P01579 24-166, limits assumed).
T8 sequence (looked up): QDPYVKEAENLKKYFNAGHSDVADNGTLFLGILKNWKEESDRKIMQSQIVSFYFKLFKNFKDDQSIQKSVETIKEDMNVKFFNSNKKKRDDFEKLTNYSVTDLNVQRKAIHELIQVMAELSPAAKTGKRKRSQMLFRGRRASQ
Briefly: BIACORE, antibody captured, cytokine in solution.

Assay [19] deals with recombinant human IL-2 (human, UniProt P60568). Briefly: BIACORE, antibody captured, cytokine in solution.
UniProt P60568, sequence (P60568 21-153 limits assumed): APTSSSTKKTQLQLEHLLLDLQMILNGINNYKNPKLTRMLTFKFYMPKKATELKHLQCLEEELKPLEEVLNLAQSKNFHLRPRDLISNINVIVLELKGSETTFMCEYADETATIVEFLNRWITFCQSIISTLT

B1: 2.5(E)mg1 (antibody, human IgG1, kappa, L234A L235A)
heavy: ZVQLVQSGTEVKKPGESLKISCKGSGYTVTSYWIGWVRQMPGKGLEWMGFIYPGDSETRYSPTFQGQVTISADKSFNTAFLQWSSLKASDTAMYYCARVGSGWYPYTFDIWGQGTMVTVSSASTKGPSVFPLAPSSKSTSGGTAALGCLVKDYFPEPVTVSWNSGALTSGVHTFPAVLQSSGLYSLSSVVTVPSSSLGTQTYICNVNHKPSNTKVDKKV[letters of human IgG1 Fc with changes not shown]
light: EIVMTQSPATLSVSPGERATLSCRASESISSNLAWYQQKPGQAPRLFIYTASTRATDIPARFSGSGSGTEFTLTISSLQSEDFAVYYCQQYNNWPSITFGQGTRLEIKRTVAAPSVFIFPPSDEQLKSGTASVVCLLNNFYPREAKVQWKVDNALQSGNSQESVTEQDSKDSTYSLSSTLTLSKADYEKHKVYACEVTHQGLSSPVTKSFNRGEC
notes: Human IgG1/kappa with L234A, L235A (mg1); also called 2.5(E)mg1 HuMAb; anti-IL-18 HuMAb 2.5(E)mg1
In the case of B1, the Kd in [1] came out at 0.31 nM; in assay [4], 0.3 nM; in [5] it was 0.2 nM; in assay [7], 0.196 nM. Further, the “KG-1, Neutralization Potency in vitro (IC50, nM)” value in assay [2] was determined as 0.2 nM. Further, in [3], the “WBA, Neutralization Potency in vitro (IC50, nM)” value worked out at 3 nM. In addition, the IC50 in assay [6] was < 2 nM; in assay [8], 2.38 nM. In addition, in assay [7], the off-rate (koff) was found to be 5.24e-05 s⁻¹. In assay [7], this molecule returned a kon of 268000 M⁻¹ s⁻¹. Besides, the binding result in assay [9], in [10], in assay [11], in assay [12], in assay [13] and in assay [14] was “no binding (tested: 1 µM)” in each case. Besides, the binding result in assay [15], in assay [16], in assay [17], in assay [18] and in [19] was “no binding (tested: 1 µM)” each time.

The Kd is a measure of binding affinity in units of concentration. As a reminder, the IC50 is the concentration that inhibits the measured activity by half. High values mean weaker potency, low ones greater potency. Broadly, the koff is the rate constant with which the complex falls apart. Low readings indicate slow dissociation, high ones fast dissociation. Usually kon stands for a measure of how fast the partners come together.
